# Measured values from PubChem BioAssay AID504332 (National Center for Advancing Translational Sciences (NCATS), 2011).
# In all, about 350,000 compounds went through this assay and about 31,000 (8.9%) were called active. The inconclusive results got no clear call from the source; some entries with a clear call stand among them for comparison. Calls follow the shape of the dose curve; as a rule, active = well fitted inhibition curve with a large enough effect; inconclusive = small, poorly fitted or top-dose-only effect; inactive = no such curve, though single readings can be large or run the other way. A potency beside an inconclusive call is a rough fit, not a confirmed value.
# Molecular target: Histone-lysine N-methyltransferase EHMT2 (Homo sapiens) (UniProt Q96KQ7)
# Assay: qHTS Assay for Inhibitors of Histone Lysine Methyltransferase G9a; also: nearly all actives have a fitted effect of over 75% in size
# Conditions: G9a H3K9 monomethylation, AlphaScreen, 2 h; activity, negative = inhibition: at 59 µM (top of the series) unless noted
# How it was run: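 Enzyme 20 nM + cpd, 15 min RT; add b-H3K9 pep 500 nM / SAM 20 uM; 2 h RT; anti-H3K9me1 Ab 0.5 ug/mL + SA donor / anti-rabbit acceptor beads 20 ug/mL each, 10 min; AlphaScreen read.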
# % is scaled to controls: 0 for no effect and ±100 for the full control effect; potency is read from the fitted curve at half-maximal effect; tags tell the direction and shape of the fitted curve.
# Chain of UniProt Q96KQ7 (Q96KQ7 whole entry, looked up): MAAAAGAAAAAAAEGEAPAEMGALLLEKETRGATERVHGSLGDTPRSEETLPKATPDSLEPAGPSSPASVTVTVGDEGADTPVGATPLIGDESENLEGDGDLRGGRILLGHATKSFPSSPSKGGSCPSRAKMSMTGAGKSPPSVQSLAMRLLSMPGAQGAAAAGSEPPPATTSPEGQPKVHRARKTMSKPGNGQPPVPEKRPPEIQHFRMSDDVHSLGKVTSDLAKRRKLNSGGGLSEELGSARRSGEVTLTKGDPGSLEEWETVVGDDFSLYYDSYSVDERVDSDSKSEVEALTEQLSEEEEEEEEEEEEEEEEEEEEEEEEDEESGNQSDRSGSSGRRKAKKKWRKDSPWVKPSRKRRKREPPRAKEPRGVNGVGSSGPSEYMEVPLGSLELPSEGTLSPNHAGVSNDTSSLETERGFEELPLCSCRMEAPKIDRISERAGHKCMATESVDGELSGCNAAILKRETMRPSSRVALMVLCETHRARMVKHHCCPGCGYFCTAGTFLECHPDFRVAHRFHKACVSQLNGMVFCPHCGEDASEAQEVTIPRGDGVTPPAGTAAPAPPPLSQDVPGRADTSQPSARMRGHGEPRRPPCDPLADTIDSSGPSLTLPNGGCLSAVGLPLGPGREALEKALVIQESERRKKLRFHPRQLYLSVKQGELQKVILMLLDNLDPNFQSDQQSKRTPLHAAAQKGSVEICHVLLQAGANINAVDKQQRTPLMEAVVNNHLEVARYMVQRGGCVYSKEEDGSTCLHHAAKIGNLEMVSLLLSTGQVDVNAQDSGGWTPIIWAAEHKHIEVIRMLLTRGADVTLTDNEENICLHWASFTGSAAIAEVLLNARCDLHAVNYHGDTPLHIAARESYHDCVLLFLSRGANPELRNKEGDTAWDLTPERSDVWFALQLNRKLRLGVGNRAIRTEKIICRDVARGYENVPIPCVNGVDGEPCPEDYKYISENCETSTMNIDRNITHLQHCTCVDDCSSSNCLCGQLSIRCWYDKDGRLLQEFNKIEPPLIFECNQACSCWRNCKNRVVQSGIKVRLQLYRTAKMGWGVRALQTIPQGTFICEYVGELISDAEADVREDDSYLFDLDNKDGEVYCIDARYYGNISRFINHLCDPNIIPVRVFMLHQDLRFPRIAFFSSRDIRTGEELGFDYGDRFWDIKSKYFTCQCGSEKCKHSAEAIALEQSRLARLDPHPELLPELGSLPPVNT
SMILES,Potency,"activity, negative = inhibition"
COc1cccc(OC)c1C(=O)Nc1ccc(N2CCN(S(C)(=O)=O)CC2)cc1,"inconclusive: 56.2 µM [inhibitor, partial curve]",–
CSCC[C@H](NC(=O)[C@@H]1Cc2ccccc2CN1)C(=O)NC1CCCCC1,active: 25.1 µM,–
CC(C)(CO)Nc1nc(Nc2ccccc2)nc(Nc2ccccc2)n1,"inconclusive: 20 µM [inhibitor, single point]",–
COc1ccc2[nH]c3c(N4CCc5ccccc5C4)ncnc3c2c1,active: 44.7 µM,–
COc1ccc(Br)cc1/C=N/NC(=O)C[n+]1ccccc1,–,inactive: -12.8% [at 102 µM]
N/C(=N\OC(=O)c1ccc2c(c1)OCO2)c1ccc(Br)cc1,–,inactive: -36.4% [at 102 µM]
CCC1(C)Cc2c(sc3nc(SCC(=O)O)[nH]c(=O)c23)CO1 (centres undefined),"inconclusive: 11.2 µM [inhibitor, partial curve, poor fit]",–
CC(C)C(NC=C1C(=O)OC(C)(C)OC1=O)C(=O)O (centres undefined),"inconclusive: 3.16 µM [inhibitor, partial curve, poor fit]",–
CC1=C(C(=O)NCc2cccc(Br)c2)C2(CCCCC2)OC1=O,–,inactive: -2.75%
CCOC(=O)c1nc(S(C)(=O)=O)ncc1Cl,"inconclusive: 31.6 µM [inhibitor, single point]",–
CCC1(c2ccccc2)NC(=O)N(CC(=O)Nc2cc(S(=O)(=O)N3CCCCC3)ccc2OC(C)C)C1=O (centres undefined),"inconclusive: 8.91 µM [inhibitor, partial curve, poor fit]",–
CCCOc1ccc(/C(O)=C2/C(=O)C(=O)N(CCN(C)C)C2c2ccc(OC)c(OC)c2)cc1 (centres undefined),active: 10 µM,–
CCc1nc(SCC(=O)Nc2ccc(Br)cn2)n[nH]1,–,inactive: 0.519% [at 102 µM]
CC1CCCN(C2=C(NS(=O)(=O)c3ccc(Cl)cc3)C(=O)c3ccccc3C2=O)C1 (centres undefined),active: 2.51 µM,–
O=C(C[n+]1ccccc1)Nc1ccccc1Br,active: 0.316 µM,–
C=C(C)C1CC=C(C)/C(=N\NC(=O)CNc2ccccc2OC)C1 (centres undefined),active: 35.5 µM,–
Cc1cc([N+](=O)[O-])ccc1NC(=O)C(C)NC1CCCCC1 (centres undefined),"inconclusive: 89.1 µM [inhibitor, single point]",–
Cc1ccc(C(=O)NCC(=O)OCC(=O)NC2CCS(=O)(=O)C2)cc1C (centres undefined),–,inactive: 8.75%
O=C(CN1CC(=O)Oc2ccccc21)OCC(=O)c1cccc(Br)c1,active: 44.7 µM,–
Cc1nnc(N2CCC(C(=O)Nc3ccc(F)cc3)CC2)c2nn(-c3ccc(Cl)cc3)c(C)c12,–,inactive: -2.85%
COc1c(C(=O)Nc2ccc(Br)cn2)ccc2ccccc12,"inconclusive: 89.1 µM [inhibitor, partial curve, poor fit]",–
O=C(CCc1nc(-c2ccccc2)no1)NC1CCCCC1,"inconclusive: 25.1 µM [inhibitor, single point]",–
O=C(O)c1ccc(Nc2nc3ccc(Cl)cc3[nH]2)cc1,active: 44.7 µM,–
O=C(NCC1CCCO1)C(=O)NCC1CCCN1S(=O)(=O)c1ccccc1 (centres undefined),"inconclusive: 89.1 µM [inhibitor, single point]",–
Cc1ccc(C(=O)Nc2c(-c3ccccc3)nc3ccccn23)cc1,"inconclusive: 7.08 µM [inhibitor, partial curve, poor fit]",–

SMILES,Potency,"activity, negative = inhibition"
Cc1cc(Sc2ncnc(N)c2[N+](=O)[O-])ncn1,–,inactive: -2.78% [at 12.7 µM]
NC(=O)[C@H]1CC2(CC(c3cccc(NC(=O)COc4ccc(Cl)cc4)c3)=NO2)CN1C(=O)C(c1ccccc1)c1ccccc1 (some centres undefined),–,inactive: -44.8%
COc1cccc(/C=C2/SC(=S)N(CCC(=O)N3CCOCC3)C2=O)c1,"inconclusive: 89.1 µM [inhibitor, single point]",–
COc1ccc(OC)c(NC(=O)c2c(NCc3sccc3C)sc3c2CCCCC3)c1,"inconclusive: 8.91 µM [inhibitor, partial curve, poor fit]",–
CC(=O)N1CC(C)c2scc(C)[n+]2-c2ccccc21 (centres undefined),"inconclusive: 89.1 µM [inhibitor, single point]",–
COc1ccc2c(c1)-c1nc(NC(=O)c3ccc(OC)c(Br)c3)sc1CC2,–,inactive: -35.3%
CCOC(=O)C1Cc2cc3c(cc2C1=O)CC(C(=O)OCC)C3=O (centres undefined),active: 35.5 µM,–
COc1cc(/C=C/c2ccc3c(Br)cc(Br)c(O)c3n2)ccc1O,–,inactive: 82.5% [at 102 µM]
Cc1ccc(NC(=S)Nc2cc(-c3ccccc3)[nH]n2)cc1Cl,"inconclusive: 89.1 µM [inhibitor, single point]",–
O=C(CSc1nnc(-c2cccnc2)o1)Nc1cccc(Cl)c1,active: 44.7 µM,–
CCOC(=O)Nc1ccc2c(c1)N(C(=O)OCCN(C)C)c1ccccc1CC2,"inconclusive: 79.4 µM [inhibitor, single point]",–
C/C(=N\NC(=O)Cc1ccc(O)cc1)c1cccnc1,"inconclusive: 39.8 µM [inhibitor, partial curve, poor fit]",–
CCCCCn1nc(-c2ccccc2)c2nc3ccccc3nc21,–,inactive: 350%
CSc1nnc2c(n1)OC=Nc1ccc(Br)cc1-2,"inconclusive: 56.2 µM [inhibitor, partial curve]",–
Cc1ccc(CN2C(=O)c3ccccc3NC23CCN(Cc2ccccc2)CC3)cc1,"inconclusive: 50.1 µM [inhibitor, partial curve]",–
Cc1cccc(-c2noc(CN(C3CCCCC3)S(=O)(=O)c3ccc(F)cc3)n2)c1,–,inactive: 33.5%
CCC(C(=O)OCc1cc(=O)n2nc(C)sc2n1)c1ccccc1 (centres undefined),–,inactive: 19.1%
CCC(C)C(=O)N1CCc2cc(-c3csc(N)n3)ccc21 (centres undefined),"inconclusive: 79.4 µM [inhibitor, single point]",–
CCOC(=O)C1=C(O)/C(=C\c2cc(C)n(-c3ccccc3F)c2C)N=C1C,"inconclusive: 35.5 µM [inhibitor, single point]",–
C=CCc1cccc(C=Nc2cccn3cc(-c4ccccc4)nc23)c1O,"inconclusive: 39.8 µM [inhibitor, partial curve, poor fit]",–
Cc1ccc(Cn2c(=N)c(S(=O)(=O)c3ccc(C)cc3)cc3c(=O)n4ccccc4nc32)cc1,–,inactive: 12.9% [at 102 µM]
CC1CCC2C(=O)N(c3cccc(OS(=O)(=O)c4ccccc4)c3)C(=O)C2C1 (centres undefined),–,inactive: -2.11% [at 102 µM]
COc1ccccc1NC(=O)CCSc1nc(C)cs1,–,inactive: -0.908% [at 102 µM]
COc1ccc(N2CCN(c3oc(COc4ccc(Cl)cc4Cl)nc3C#N)CC2)cc1,–,inconclusive: -86.2% [inhibitor]
CC12C(=O)N(c3ccccn3)C(=O)C1C1C=CC2C1 (centres undefined),–,inactive: -2.97% [at 102 µM]

SMILES,Potency,"activity, negative = inhibition"
CC/C(=N\NC(=O)c1c(C)nc2ccccn12)c1ccc(Cl)cc1,–,inactive: 15.2% [at 102 µM]
Cc1ccc(N(CCC#N)C(=O)COC(=O)C2CCN(S(=O)(=O)c3ccc(C)c(C)c3)CC2)cc1,active: 44.7 µM,–
COc1ccc2nc(SCC(=O)Nc3ccc4c(c3)OCCO4)[nH]c2c1,–,inconclusive: -87.9% [inhibitor]
O=C(CN1CCN(Cc2ccccc2)CC1)N1CCCc2ccccc21,"inconclusive: 70.8 µM [inhibitor, single point]",–
O=C(CCCN1C(=O)c2cccc3cccc(c23)C1=O)N1CCN(c2ccc(F)cc2)CC1,"inconclusive: 25.1 µM [inhibitor, full curve]",–
COc1ccc(NS(=O)(=O)c2cccc(C(=O)N3CCN(c4ccccc4O)CC3)c2)cc1,"inconclusive: 50.1 µM [inhibitor, partial curve]",–
COc1ccc(/C=N/Nc2nc(-c3ccc(C)cc3)c(NC(C)=O)s2)cc1,active: 10 µM,–
CC(C)(C)C(=O)c1sc2nc(-c3cccs3)cc(C(F)(F)F)c2c1N,"inconclusive: 39.8 µM [inhibitor, single point]",–
CC(C)(O)P(=O)(O)CCc1ccccc1,"inconclusive: 56.2 µM [inhibitor, partial curve]",–
NS(=O)(=O)c1ccc(-c2ccc(/C=N/NC(=O)c3ccc([N+](=O)[O-])cc3)o2)cc1,–,inactive: -5.34% [at 102 µM]
O=C(CS(=O)CC(=O)N(CC(=O)NC1CCCC1)C1CCCCC1)Nc1ccc(F)cc1 (centres undefined),"inconclusive: 89.1 µM [inhibitor, partial curve, poor fit]",–
CCOC(=O)C1=C(C)N=c2s/c(=C\c3ccncc3)c(=O)n2C1c1ccc2c(c1)OCO2 (centres undefined),–,inactive: -34% [at 12.7 µM]
CSCc1c(C(=O)OCC(=O)c2ccc[nH]2)oc2ccccc12,active: 25.1 µM,–
Cc1ccccc1OCC(=O)OCc1cc(=O)n2nc(C3CC3)sc2n1,–,inactive: 8.07%
Cc1cc(C)c(NC(=O)CSc2nnc(-c3ccncc3)n2Cc2ccco2)c(C)c1,–,inactive: -27.6% [at 12.7 µM]
COc1ccc(CC(=O)NCCc2sc3nc(-c4ccc(OC)cc4)nn3c2C)cc1,–,inactive: 7.66%
O=C(Nc1nnc(C(F)(F)F)s1)c1ccc(Br)s1,active: 50.1 µM,–
COc1ccc(OC)c(-c2cc(C(=O)Nc3c(C)nn(Cc4ccccc4Cl)c3C)no2)c1,"inconclusive: 7.08 µM [inhibitor, partial curve, poor fit]",–
COc1ccccc1NC(=O)COC(=O)c1ccc([N+](=O)[O-])s1,"inconclusive: 50.1 µM [inhibitor, partial curve, poor fit]",–
CCOC(=O)c1ccc(S(=O)(=O)N2CCN(C(=O)c3nn(C)c(=O)c4ccccc34)CC2)cc1,"inconclusive: 39.8 µM [inhibitor, partial curve, poor fit]",–
CCC(=O)c1ccccc1OCCCn1cncn1,–,inactive: -3.16%
CCOC(=O)c1c(C)oc2c(F)c(F)c(F)c(F)c2c1=O,–,inconclusive: -68% [inhibitor]
COc1cc(NC(=O)Nn2cnnc2)cc(OC)c1OC,active: 44.7 µM,–
Cc1cccc(-c2nsc(SCC(=O)Nc3nccs3)n2)c1,active: 10 µM,–
